This is a selection; strong and weak results do not stand in their true shares. At the low end of the ranking the order means little.

This assay concerns the target RUNX1 (UniProt Q01196). As to the kind of experiment: custom PBM. The note with it: custom protein-binding microarray; buffer, salt, pH and temperature not stated; high values mean tight binding; double strand, one strand shown.
Chain of UniProt Q01196 (Q01196 whole entry): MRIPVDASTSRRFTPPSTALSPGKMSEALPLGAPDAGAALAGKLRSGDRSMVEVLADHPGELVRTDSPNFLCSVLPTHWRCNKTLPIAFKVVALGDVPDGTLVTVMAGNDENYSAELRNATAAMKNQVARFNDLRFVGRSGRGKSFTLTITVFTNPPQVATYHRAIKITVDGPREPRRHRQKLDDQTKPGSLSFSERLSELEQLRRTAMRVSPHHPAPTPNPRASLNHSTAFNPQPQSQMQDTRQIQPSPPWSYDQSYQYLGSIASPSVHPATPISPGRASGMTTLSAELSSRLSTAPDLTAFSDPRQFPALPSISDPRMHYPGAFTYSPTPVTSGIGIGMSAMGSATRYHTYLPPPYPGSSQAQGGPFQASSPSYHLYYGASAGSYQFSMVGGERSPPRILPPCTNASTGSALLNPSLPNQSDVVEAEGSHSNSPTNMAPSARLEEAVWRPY
Consider “CGCGCACTCTGTCGTTGCGCACATACGCACACATACACATACACACATACACATACGCAC”, for which the binding signal (log fluorescence intensity) is 10.9.
Turning to “GCGCACCTTTCCCGTAAATCATACACGCACACATACACATACACACATACACATACGCAC”, the binding signal (log fluorescence intensity) was 10.9.
With “GCATACGGCTGACCTCAGCCACATACGCACACATACACATACACACATACACATACGCAC”, the binding signal (log fluorescence intensity) worked out at 11.
For the sequence “GCATACGGCTGATGTCAGCCACATACGCACACATACACATACACACATACACATACGCAC”, the binding signal (log fluorescence intensity) was determined as 10.9.
For the sequence “CGCGCACTCCGTGGTTGCGCACATACGCACACATACACATACACACATACACATACGCAC”, the binding signal (log fluorescence intensity) came to 10.9.
The figure for “GCATACGGCTGACGTCCGCCACATACGCACACATACACATACACACATACACATACGCAC” is 10.9; for “GCGCACGTTTCCCGTAAATCATACACGCACACATACACATACACACATACACATACGCAC” it is 10.9; for “GCATACCGCTGACGTCAGCCACATACGCACACATACACATACACACATACACATACGCAC” it is 10.9.
As for “GCATACGGCTGACGTCAGCTACATACGCACACATACACATACACACATACACATACGCAC”, the binding signal (log fluorescence intensity) is 10.9.
“CGCGCACTCTATGGTTGCGCACATACGCACACATACACATACACACATACACATACGCAC”: the binding signal (log fluorescence intensity) is 10.9.
In the case of “GCATACGGCTGACGACAGCCACATACGCACACATACACATACACACATACACATACGCAC”, the binding signal (log fluorescence intensity) is 10.9.
As for “GCGCACATGTCCCGTAAATCATACACGCACACATACACATACACACATACACATACGCAC”, the binding signal (log fluorescence intensity) was 10.9.
Consider “GCGCACATTTCCCGTAAATAATACACGCACACATACACATACACACATACACATACGCAC”, for which the binding signal (log fluorescence intensity) was determined as 10.9.
Take “GCGCACATTTCCCGTAGATCATACACGCACACATACACATACACACATACACATACGCAC”: the binding signal (log fluorescence intensity) came to 10.9.

(Values after paper PMC6602471.)
